From the supplement of paper PMC8728848
This is one part of the list.

Columns and labels:
Experiment in all cases: glycan array binding signal (z-score within array); higher = stronger binding
Settings in all cases: glycan notation: IUPAC condensed, linker removed
[1] = biological target: Neu5Ac(a2-3)Gal(b1-4)GlcNAc(b1-6)[Gal(b1-3)]GalNAc
How it was run: (§1)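 Columns mapping to the same glycan were averaged after glycan names were converted to IUPAC-condensed notation. The data come from 3228 arrays in the Consortium for Functional Glycomics database, limited to those with an available protein sequence. Binding is reported as a within-array Z-score averaged across arrays of one protein sequence and across linkers.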

[2] = biological target: Neu5Ac(a2-3)Gal(b1-4)GlcNAc(b1-6)[Neu5Ac(a2-3)Gal(b1-3)]GalNAc
How it was run: as §1

[3] = biological target: Neu5Ac(a2-3)Gal(b1-4)GlcNAc6S
How it was run: as §1

[4] = biological target: Neu5Ac(a2-3)Gal(b1-4)[Fuc(a1-3)]GlcNAc
How it was run: as §1

[5] = biological target: Neu5Ac(a2-3)Gal(b1-4)[Fuc(a1-3)]GlcNAc(b1-2)Man
How it was run: as §1

[6] = biological target: Neu5Ac(a2-3)Gal(b1-4)[Fuc(a1-3)]GlcNAc(b1-3)Gal
How it was run: as §1

[7] = biological target: Neu5Ac(a2-3)Gal(b1-4)[Fuc(a1-3)]GlcNAc(b1-3)Gal(b1-4)GlcNAc
How it was run: as §1

[8] = biological target: Neu5Ac(a2-3)Gal(b1-4)[Fuc(a1-3)]GlcNAc(b1-3)Gal(b1-4)[Fuc(a1-3)]GlcNAc(b1-3)Gal(b1-4)[Fuc(a1-3)]GlcNAc
How it was run: as §1

[9] = biological target: Neu5Ac(a2-3)Gal(b1-4)[Fuc(a1-3)]GlcNAc(b1-3)GalNAc
How it was run: as §1

[10] = biological target: Neu5Ac(a2-3)Gal(b1-4)[Fuc(a1-3)]GlcNAc(b1-6)[Gal(b1-3)]GalNAc
How it was run: as §1

[11] = biological target: Neu5Ac(a2-3)Gal(b1-4)[Fuc(a1-3)]GlcNAc(b1-6)[Neu5Ac(a2-3)Gal(b1-3)]GalNAc
How it was run: as §1

[12] = biological target: Neu5Ac(a2-3)Gal(b1-4)[Fuc(a1-3)]GlcNAc6S
How it was run: as §1

[13] = biological target: Neu5Ac(a2-3)Gal6S(b1-4)GlcNAc
How it was run: as §1

[14] = biological target: Neu5Ac(a2-3)Gal6S(b1-4)[Fuc(a1-3)]GlcNAc
How it was run: as §1

[15] = biological target: Neu5Ac(a2-3)GalNAc
How it was run: as §1

[16] = biological target: Neu5Ac(a2-3)GalNAc(b1-4)GlcNAc
How it was run: as §1

[17] = biological target: Neu5Ac(a2-3)[GalNAc(b1-4)]Gal(b1-4)Glc
How it was run: as §1

[18] = biological target: Neu5Ac(a2-3)[GalNAc(b1-4)]Gal(b1-4)GlcNAc
How it was run: as §1

[19] = biological target: Neu5Ac(a2-3)[GalNAc(b1-4)]Gal(b1-4)GlcNAc(b1-3)GalNAc
How it was run: as §1

[20] = biological target: Neu5Ac(a2-3)[Neu5Ac(a2-6)]GalNAc
How it was run: as §1

[21] = biological target: Neu5Ac(a2-6)Gal
How it was run: as §1

[22] = biological target: Neu5Ac(a2-6)Gal(b1-3)GlcNAc(b1-3)[Gal(b1-4)GlcNAc(b1-6)]Gal(b1-4)Glc
How it was run: as §1

[23] = biological target: Neu5Ac(a2-6)Gal(b1-4)Glc
How it was run: as §1

[24] = biological target: Neu5Ac(a2-6)Gal(b1-4)GlcNAc
How it was run: as §1

[25] = biological target: Neu5Ac(a2-6)Gal(b1-4)GlcNAc(b1-2)Man
How it was run: as §1

[26] = biological target: Neu5Ac(a2-6)Gal(b1-4)GlcNAc(b1-2)Man(a1-3)Man(b1-4)GlcNAc(b1-4)GlcNAc
How it was run: as §1

[27] = biological target: Neu5Ac(a2-6)Gal(b1-4)GlcNAc(b1-2)Man(a1-3)[Gal(b1-4)GlcNAc(b1-2)Man(a1-6)]Man(b1-4)GlcNAc(b1-4)GlcNAc
How it was run: as §1

[28] = biological target: Neu5Ac(a2-6)Gal(b1-4)GlcNAc(b1-2)Man(a1-3)[GlcNAc(b1-2)Man(a1-6)]Man(b1-4)GlcNAc(b1-4)GlcNAc
How it was run: as §1

[29] = biological target: Neu5Ac(a2-6)Gal(b1-4)GlcNAc(b1-2)Man(a1-3)[GlcNAc(b1-4)][Neu5Ac(a2-6)Gal(b1-4)GlcNAc(b1-2)Man(a1-6)]Man(b1-4)GlcNAc(b1-4)GlcNAc
How it was run: as §1

[30] = biological target: Neu5Ac(a2-6)Gal(b1-4)GlcNAc(b1-2)Man(a1-3)[Man(a1-6)]Man(b1-4)GlcNAc(b1-4)GlcNAc
How it was run: as §1

[31] = biological target: Neu5Ac(a2-6)Gal(b1-4)GlcNAc(b1-2)Man(a1-3)[Neu5Ac(a2-3)Gal(b1-4)GlcNAc(b1-2)Man(a1-6)]Man(b1-4)GlcNAc(b1-4)GlcNAc
How it was run: as §1

[32] = biological target: Neu5Ac(a2-6)Gal(b1-4)GlcNAc(b1-2)Man(a1-3)[Neu5Ac(a2-6)Gal(b1-4)GlcNAc(b1-2)Man(a1-6)]Man(b1-4)GlcNAc(b1-4)GlcNAc
How it was run: as §1

[33] = biological target: Neu5Ac(a2-6)Gal(b1-4)GlcNAc(b1-2)Man(a1-3)[Neu5Ac(a2-6)Gal(b1-4)GlcNAc(b1-2)Man(a1-6)]Man(b1-4)GlcNAc(b1-4)[Fuc(a1-6)]GlcNAc
How it was run: as §1

[34] = biological target: Neu5Ac(a2-6)Gal(b1-4)GlcNAc(b1-2)Man(a1-6)Man(b1-4)GlcNAc(b1-4)GlcNAc
How it was run: as §1

[35] = biological target: Neu5Ac(a2-6)Gal(b1-4)GlcNAc(b1-2)Man(a1-6)[Gal(b1-4)GlcNAc(b1-2)Man(a1-3)]Man(b1-4)GlcNAc(b1-4)GlcNAc
How it was run: as §1

[36] = biological target: Neu5Ac(a2-6)Gal(b1-4)GlcNAc(b1-2)Man(a1-6)[GlcNAc(b1-2)Man(a1-3)]Man(b1-4)GlcNAc(b1-4)GlcNAc
How it was run: as §1

[37] = biological target: Neu5Ac(a2-6)Gal(b1-4)GlcNAc(b1-2)Man(a1-6)[Man(a1-3)]Man(b1-4)GlcNAc(b1-4)GlcNAc
How it was run: as §1

[38] = biological target: Neu5Ac(a2-6)Gal(b1-4)GlcNAc(b1-2)[Neu5Ac(a2-6)Gal(b1-4)GlcNAc(b1-4)]Man(a1-3)[GlcNAc(b1-4)][Neu5Ac(a2-6)Gal(b1-4)GlcNAc(b1-2)[Neu5Ac(a2-6)Gal(b1-4)GlcNAc(b1-6)]Man(a1-6)]Man(b1-4)GlcNAc(b1-4)GlcNAc
How it was run: as §1

[39] = biological target: Neu5Ac(a2-6)Gal(b1-4)GlcNAc(b1-2)[Neu5Ac(a2-6)Gal(b1-4)GlcNAc(b1-4)]Man(a1-3)[GlcNAc(b1-4)][Neu5Ac(a2-6)Gal(b1-4)GlcNAc(b1-4)Man(a1-6)]Man(b1-4)GlcNAc(b1-4)GlcNAc
How it was run: as §1

[40] = biological target: Neu5Ac(a2-6)Gal(b1-4)GlcNAc(b1-2)[Neu5Ac(a2-6)Gal(b1-4)GlcNAc(b1-6)]Man(a1-6)[Neu5Ac(a2-6)Gal(b1-4)GlcNAc(b1-2)Man(a1-3)][GlcNAc(b1-4)]Man(b1-4)GlcNAc(b1-4)GlcNAc
How it was run: as §1

[41] = biological target: Neu5Ac(a2-6)Gal(b1-4)GlcNAc(b1-3)Gal(b1-3)GlcNAc
How it was run: as §1

[42] = biological target: Neu5Ac(a2-6)Gal(b1-4)GlcNAc(b1-3)Gal(b1-4)GlcNAc
How it was run: as §1

[43] = biological target: Neu5Ac(a2-6)Gal(b1-4)GlcNAc(b1-3)Gal(b1-4)GlcNAc(b1-2)Man(a1-3)[Neu5Ac(a2-6)Gal(b1-4)GlcNAc(b1-3)Gal(b1-4)GlcNAc(b1-2)Man(a1-6)]GalNAc
How it was run: as §1

[44] = biological target: Neu5Ac(a2-6)Gal(b1-4)GlcNAc(b1-3)Gal(b1-4)GlcNAc(b1-3)Gal(b1-4)GlcNAc
How it was run: as §1

[45] = biological target: Neu5Ac(a2-6)Gal(b1-4)GlcNAc(b1-3)Gal(b1-4)GlcNAc(b1-3)Gal(b1-4)GlcNAc(b1-2)Man(a1-3)[Neu5Ac(a2-6)Gal(b1-4)GlcNAc(b1-3)Gal(b1-4)GlcNAc(b1-3)Gal(b1-4)GlcNAc(b1-2)Man(a1-6)]GalNAc
How it was run: as §1

B1: Fm1D (Escherichia coli) (protein)
chain: FSCNVDGGSSIGAGTTSVYVNLDPVIQPGQNLVVDLSQHISCWNDYGGWYDTDHINLVQGSAFAGSLQSYKGSLYWNNVTYPFPLTTNTNVLDIGDKTPMPLPLKLYITPVGAAGGVVIKAGEVIARIHMYKIATLGSGNPRNFTWNIISNNSVVMPTHHHHHH
glycan array binding signal (z-score) [1]: 5.29
glycan array binding signal (z-score) [2]: -0.14
glycan array binding signal (z-score) [3]: -0.145
glycan array binding signal (z-score) [4]: -0.145
glycan array binding signal (z-score) [5]: -0.14
glycan array binding signal (z-score) [6]: -0.145
glycan array binding signal (z-score) [7]: -0.14
glycan array binding signal (z-score) [8]: -0.102
glycan array binding signal (z-score) [9]: -0.137
glycan array binding signal (z-score) [10]: 0.585
glycan array binding signal (z-score) [11]: -0.141
glycan array binding signal (z-score) [12]: -0.147
glycan array binding signal (z-score) [13]: -0.144
glycan array binding signal (z-score) [14]: -0.141
glycan array binding signal (z-score) [15]: -0.148
glycan array binding signal (z-score) [16]: -0.145
glycan array binding signal (z-score) [17]: -0.146
glycan array binding signal (z-score) [18]: -0.145
glycan array binding signal (z-score) [19]: -0.141
glycan array binding signal (z-score) [20]: -0.139
glycan array binding signal (z-score) [21]: -0.143
glycan array binding signal (z-score) [22]: -0.145
glycan array binding signal (z-score) [23]: -0.145
glycan array binding signal (z-score) [24]: -0.144
glycan array binding signal (z-score) [25]: -0.147
glycan array binding signal (z-score) [26]: -0.144
glycan array binding signal (z-score) [27]: -0.141
glycan array binding signal (z-score) [28]: -0.145
glycan array binding signal (z-score) [29]: -0.146
glycan array binding signal (z-score) [30]: -0.145
glycan array binding signal (z-score) [31]: -0.149
glycan array binding signal (z-score) [32]: -0.144
glycan array binding signal (z-score) [33]: -0.144
glycan array binding signal (z-score) [34]: -0.147
glycan array binding signal (z-score) [35]: -0.145
glycan array binding signal (z-score) [36]: -0.136
glycan array binding signal (z-score) [37]: -0.146
glycan array binding signal (z-score) [38]: -0.142
glycan array binding signal (z-score) [39]: -0.139
glycan array binding signal (z-score) [40]: -0.149
glycan array binding signal (z-score) [41]: -0.147
glycan array binding signal (z-score) [42]: -0.147
glycan array binding signal (z-score) [43]: -0.135
glycan array binding signal (z-score) [44]: -0.146
glycan array binding signal (z-score) [45]: -0.133
